Experimental data as given in paper PMC12040169 (PLOS Biology, 2025).
The list shows a part of the results.

test system: T1, C. trachomatis L2/434/Bu expressing GFP (CTL2-GFP); set-up: species or system HeLa; C. trachomatis total inclusion area by high-content imaging, normalised to DMSO; settings: total inclusion area; 28.5 h, 10 µM; inhibitor
T1 construct: L2/434/Bu GFP intracellular growth in HeLa cells
Source text: In this process, we also complemented the assay described above with an imaging-based readout (Fig 1B). After measurements of bulk GFP and resorufin fluorescence, cells were fixed, stained with the DNA dye Hoechst, and imaged at a high-content imaging platform to detect chlamydial inclusions (GFP) and host cell nuclei (Hoechst). The total area and number of inclusions in individual wells and the number of nuclei then served as additional proxies for chlamydial growth and host cell viability. […] MICs were calculated as described above.

Compound | % of control remaining
COc1cccc(CNC(=O)c2cc3c(nc2N)CCN(Cc2cccc(C)c2OC)C3)c1 [CBK285682] | 79.6006
CCCn1nc(C)c(-c2cncn2CC(C)N2CCC(C)CC2)c1C (stereo not shown) [CBK281791] | 78.7632
Cc1ccc(OC2(C(=O)N3CCCC3C(F)(F)F)CCNCC2)cc1 (stereo not shown) [CBK307226] | 102.014
NCCSC1CC(=O)N(Cc2ccc(F)cc2)C1=O (stereo not shown) [CBK269025C] | 60.8891
O=C1CC2(CCN(C(=O)c3ccccn3)CC2)Oc2ccc(Br)cc21 [CBK156443] | 105.25
O=CN1CCc2c([nH]c3cc(F)ccc23)C12CCN(CCc1cccs1)CC2 [CBK040312] | 91.3156
O=C(O)c1ccc(NC(=O)c2cn(-c3ccccc3)nc2-c2ccccc2)cc1 [CBK296120] | 112.712
CN1CCN(c2nc(-c3cccc(F)c3)cnc2N)CC1 [CBK063433] | 114.827
CC(=O)c1cc(-c2cccnc2)cs1 [CBK017637] | 14.8287
Cn1c(=O)n(CC#N)c2ccccc21 [CBK025636] | 21.2966
O=C(NCCc1c[nH]c2ccc(Cl)cc12)c1ccoc1 [CBK159782] | 133.041
Cc1cn(CC(=O)N2CCC3(CCN(Cc4ccccc4)C3)C2)c(=O)[nH]c1=O (stereo not shown) [CBK136840] | 83.819
Cc1ccc(NS(=O)(=O)c2cc(C(=O)Nc3cccc(N(C)S(C)(=O)=O)c3)ccc2C)c(C)c1 [CBK268220] | 99.3192
Cc1cc(NC(=O)Cn2cc(Br)cn2)no1 [CBK305706] | 99.0797
COc1ccc(CNC(=O)[C@H]2C=CCN2C(=O)C2CC2)cc1 [CBK282326] | 79.9025
Nc1cccc(Oc2ccc3c(c2)C(=O)N(CCC(=O)O)C3=O)c1 [CBK287186] | 115.683
Cc1cccc(-c2ncc(NC(=O)c3ccccn3)nc2-c2ccc(N)cc2)c1 [CBK036694] | 121.394
Cn1c(=O)n(C)c2cc(S(=O)(=O)Nc3ccc(Cl)c(C(=O)O)c3)ccc21 [CBK299841] | 85.4302
CCOc1nc2c(c(C(F)(F)F)n1)CC(C)C/C2=C\c1ccccc1 (stereo not shown) [CBK265800] | 85.6305
O=C(/C=C/c1cccc([N+](=O)[O-])c1)Nc1ccc(Cl)c(-c2nc3ccccc3o2)c1 [CBK264610] | 96.1614

Compound | % of control remaining
C=CCn1c(C)c(C)n2c3c(=O)n(CCN4CCOCC4)c(=O)n(C)c3nc12 [CBK269778] | 71.5688
CCCn1c(SCc2nc(N)nc(Nc3ccccc3CC)n2)n[nH]c1=O [CBK296966] | 86.4356
CN(c1cccc(C#N)c1)C1CCN(c2ncnc3c2cnn3C)C1 (stereo not shown) [CBK304720] | 83.6618
C[C@@H]1CN(C(=O)OCCc2cccs2)C[C@H](C)O1 [CBK200416] | 51.8577
COc1ccc([C@]23CC[C@H](NC(=O)c4ccc(C(F)(F)F)c(F)c4)C[C@H]2CN(C)C3)cc1OC [CBK082743T] | 96.0005
O=C(Nc1ccccc1Cl)N1CCN(CCN2CCOCC2)CC1 [CBK155824] | 99.3189
CC(C)(C)NC(=O)Cn1cnc2c(cnn2-c2ccccc2)c1=O [CBK269586] | 105.507
COCCNC(=O)c1ccc(-c2ccccc2OC)nc1N(C)C [CBK106052] | 97.3942
COc1ccc(C)cc1N(CC(=O)Nc1ccc(F)c(F)c1)S(C)(=O)=O [CBK267006] | 98.3938
COc1ccc(C(=O)C2=C(O)C(=O)N(CCCN(C)C)C2c2ccncc2)cc1C (stereo not shown) [CBK264871] | 107.141
CC(=O)N1CCN(Cc2oc(C)cc(=O)c2O)CC1 [CBK288383] | 103.811
O=C(O)C1CCN(C(=O)Cc2c[nH]c3ccccc23)CC1 [CBK202747] | 57.7329
COc1ccc([C@@]23CC[C@@H](NC(=O)Nc4cccc(Br)c4)C[C@@H]2N(C)CC3)cc1OC [CBK038225T] | 79.5354
O=C(O)CCc1nc2ccccc2n1C1CCCCC1 [CBK286961] | 100.738
COc1ccc(CN2CCN(C(=O)NS(=O)(=O)c3ccc(C)cc3)CC2)cc1F [CBK297156] | 85.0466
CNC(=O)c1sc2ccccc2c1C1CCN(Cc2cnn(-c3ccc(F)cc3)c2)C1 (stereo not shown) [CBK285882] | 85.2021
CSCCC(NC(=O)c1ccc(S(=O)(=O)N2CC(C)OC(C)C2)cc1)C(=O)O (stereo not shown) [CBK297101] | 83.8332
Cc1ccccc1OCCCNCCN1CCOCC1 [CBK268590C] | 86.0689
FC(F)(F)c1csc(Nc2ccc(Cl)c(Cl)c2)n1 [CBK019093] | 27.4597
Cc1noc(C)c1C(=O)N1CCc2ccccc2C1 [CBK200333] | 103.813
